# Assay results taken from the supplement of paper PMC12217912.
# The other results are listed elsewhere or left out. Sequences were assembled here from the parent chain. Values near 0.05 are background.
# B1: TEV protease; numbered along this chain (parent)
# chain: MGESLFKGPRDYNPISSSICHLTNESDGHTTSLYGIGFGPFIITNKHLFRRNNGTLVVQSLHGVFKVKDTTTLQQHLVDGRDMIIIRMPKDFPPFPQKLKFREPQREERICLVTTNFQTKSMSSMVSDTSCTFPSGDGIFWKHWIQTKDGQCGSPLVSTRDGFIVGIHSASNFTNTNNYFTSVPKNFMELLTNQEAQQWVSGWRLNADSVLWGGHKVFMVKPEEPFQPVKEATQL
# Variants of: B1
# Assay: raw area under fraction-flipped curve 0-4 h after induction (AUC4h, not background-subtracted), DNA-recorder readout of cleavage of the substrate (dimensionless); higher = more cleavage of the substrate by the protease variant
# Settings: temperature: 34 °C; time window: 0-4 h after rhamnose induction
# 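Also: Bxb1 expression induced with 0.2% (w/v) L-rhamnose at OD600 near 0.5, cultures sampled hourly, flipped fraction per protease–substrate barcode pair counted by paired-end Illumina sequencing.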
variant,measurement,value
MGESLFKGPRDYNPISSSICHLTNESDGHTTSLYGIGFGPFIITNKHLFRRNNGTLVVQSLHGVFKVKDTTTFQQHLVDGRDMIIIRMPKDFPPFPQKLKFREPQREERICLVTTNFQTKSMSSMVSDTSCTFPSGDGIFWKHWIQTKDGQCGSPLVSTRDGFIVGIHSASNFTNTNNYFTSVPKNFMELLTNQEAQQWVSGWRLNADSVLWGGHKVFMVKPEEPFQPVKEATQL [L73F],area with substrate ENLYFQC,0.0738
same,area with substrate ENLYFQD,0.0578
same,area with substrate ENLYFQK,0.0588
same,area with substrate ENLYFQL,0.0569
same,area with substrate ENLYFQM,0.0668
same,area with substrate ENLYFQS,0.069
same,area with substrate ENLYFQT,0.0827
same,area with substrate ENLYFQW,0.0575
MGESLFKGPRDYNPISSSICHLTNESDGHTTSLYGIGFGPFIITNKHLFRRNNGTLCVQSLHGVFKVKDTTTLQQHLVDGRDMIIIRMPKDFPPFPQKLKFREPQREERICLVTTNFQTKSMSSMVSDTSCTFPSGDGIFWKHWIQTKDGQCGSPLVSTRDGFIVGIHSASNFTNTNNYFTSVPKNFMELLTNQEAQQWVSGWRLNADSVLWGGHKVFMVKPEEPFQPVKEATQL [V57C],area with substrate ENLYFQC,0.0888
same,area with substrate ENLYFQE,0.0583
same,area with substrate ENLYFQF,0.109
same,area with substrate ENLYFQG,0.0748
same,area with substrate ENLYFQH,0.101
same,area with substrate ENLYFQK,0.0593
same,area with substrate ENLYFQL,0.0647
same,area with substrate ENLYFQS,0.099
same,area with substrate ENLYFQT,0.0461
same,area with substrate ENLYFQV,0.07
same,area with substrate ENLYFQW,0.0733
same,area with substrate ENLYFQY,0.0684
MGESLFKGPRDYNPISSSICHLTNESDGHTTSLYGIGFGPFIITNKHLFRRNNGTLVVQSLHGVFKVKDTTTLQQHLVDGRDMIIIRMPKDFPPFPQKLKFREPQREERICLVTTNFQTKSMSSMVSDTSCTFPSGDGIFWKHWIQTKDGQCGSPLVSTRDGFIVGIHSASNFTNTNNYFTSVTKNFMELLTNQEAQQWVSGWRLNADSVLWGGHKVFMVKPEEPFQPVKEATQL [P184T],area with substrate ENLYFQC,0.0901
same,area with substrate ENLYFQD,0.0722
same,area with substrate ENLYFQI,0.0638
same,area with substrate ENLYFQK,0.06
same,area with substrate ENLYFQL,0.047
same,area with substrate ENLYFQN,0.0693
same,area with substrate ENLYFQR,0.0526
same,area with substrate ENLYFQS,0.093
same,area with substrate ENLYFQT,0.0649
MGESLFKGPRDYNPISSSICHLTNESDGHTTSLYGIGFGPFIITNKHLFRRNNGTLVVQSLHGVFKVKDTTTLQQHLVDGRDMIIIRMPKDFPPFPQKLKFREPQREERICLVTTNFQTKSMSSMVSDTSCTFPSGDGIFWKHWIQTKDGQCGSPLVSTRDGFIVGIHSASNFTNTNNYFTSVDKNFMELLTNQEAQQWVSGWRLNADSVLWGGHKVFMVKPEEPFQPVKEATQL [P184D],area with substrate ENLYFQC,0.111
same,area with substrate ENLYFQI,0.0544
same,area with substrate ENLYFQK,0.0526
same,area with substrate ENLYFQM,0.0725
same,area with substrate ENLYFQP,0.0471
same,area with substrate ENLYFQR,0.054
same,area with substrate ENLYFQS,0.0755
same,area with substrate ENLYFQT,0.0719
same,area with substrate ENLYFQW,0.0469
same,area with substrate ENLYFQY,0.0597
MGESLFKGPRDYNPISSSICHLTNESDGHTTSLYGIGFGPFIITNKHLFRRNNGTLVVQSLHGVFKVKDTTTLQQHLVDGRDMIIIRMPKDFPPFPQKLKFREPQREERICLVTTNFQTKSMSSMVSDTSCTFPSGDGIFWKHWIQTKDGQCGSPLVSTRDGFIVGIHSASNFTNTNNYFTSVPKNFMELLTNQEAQQWVSGWRLNADSVLWGGHKVFKVKPEEPFQPVKEATQL [M219K],area with substrate ENLYFQC,0.0594
same,area with substrate ENLYFQG,0.0672
same,area with substrate ENLYFQI,0.0547
same,area with substrate ENLYFQK,0.0635
same,area with substrate ENLYFQL,0.0492
same,area with substrate ENLYFQM,0.0637
same,area with substrate ENLYFQN,0.0553
same,area with substrate ENLYFQP,0.0662
same,area with substrate ENLYFQR,0.0479
same,area with substrate ENLYFQS,0.0697
same,area with substrate ENLYFQT,0.0835
same,area with substrate ENLYFQY,0.0574
MGESLFKGPRDYNPISSSICHLTNESDGHTTSLYGIGFGPFIITNKHLFRRNNGTLVVQSLHGVFKVKDTTTLQQHLVDGRDMIIIRMPKDFPPFPQKLKFREPQRELRICLVTTNFQTKSMSSMVSDTSCTFPSGDGIFWKHWIQTKDGQCGSPLVSTRDGFIVGIHSASNFTNTNNYFTSVPKNFMELLTNQEAQQWVSGWRLNADSVLWGGHKVFMVKPEEPFQPVKEATQL [E108L],area with substrate ENLYFQC,0.0627
same,area with substrate ENLYFQD,0.0548
same,area with substrate ENLYFQI,0.056
same,area with substrate ENLYFQK,0.0559
same,area with substrate ENLYFQL,0.0603
same,area with substrate ENLYFQQ,0.0522
same,area with substrate ENLYFQR,0.0479
same,area with substrate ENLYFQS,0.0655
same,area with substrate ENLYFQT,0.0529
same,area with substrate ENLYFQW,0.0604
MGESLFKGPRDYNPISSSICHLTNESDGHTTSLYGIGFGPFIITNKHLFRRNNGTLVVQSLHGVFKVKDTTTLQQHLVDGRDMIIIRMPKDFPPFPQKLKFREPQREERICLVTTNFQTKSMSSMVSDTSCTFPSGDGIFWKHWIQTKDGQCGSPLVSTRDGFIVGIHSASNFTNTKNYFTSVPKNFMELLTNQEAQQWVSGWRLNADSVLWGGHKVFMVKPEEPFQPVKEATQL [N177K],area with substrate ENLYFQC,0.134
same,area with substrate ENLYFQG,0.116
same,area with substrate ENLYFQK,0.045
same,area with substrate ENLYFQL,0.0733
same,area with substrate ENLYFQN,0.0656
same,area with substrate ENLYFQS,0.113
same,area with substrate ENLYFQT,0.0709
same,area with substrate ENLYFQV,0.0493
same,area with substrate ENLYFQW,0.0625
MGESLFKGPRDYNPISSSICHLTNESDGHTTSLYGIGFGPFIITNKHLFRRNNGTLVVQSLHGVFKVKDTTTLQQHLVDGRDMIIIRMPKDFPPFPQKLKFREPQREERICLVTTNFQTKSMSSMVSDTSCTFPSGDGIFWKHWIQTKDGQCGSPLVSTRDGFIVGNHSASNFTNTNNYFTSVPKNFMELLTNQEAQQWVSGWRLNADSVLWGGHKVFMVKPEEPFQPVKEATQL [I167N],area with substrate ENLYFQC,0.0677
same,area with substrate ENLYFQD,0.0581
same,area with substrate ENLYFQF,0.0562
same,area with substrate ENLYFQG,0.0645
same,area with substrate ENLYFQI,0.0562
same,area with substrate ENLYFQK,0.059
same,area with substrate ENLYFQL,0.047
same,area with substrate ENLYFQM,0.0819
same,area with substrate ENLYFQN,0.0548
same,area with substrate ENLYFQP,0.0543
same,area with substrate ENLYFQR,0.061
same,area with substrate ENLYFQS,0.0618
same,area with substrate ENLYFQT,0.0348
same,area with substrate ENLYFQV,0.0521
same,area with substrate ENLYFQW,0.0589
same,area with substrate ENLYFQY,0.045
MGESLFKGPRDYNPISSSICHLTNESDGHTTSLYGIGFGPFIITNKHLFRRNNGTLVVQSLHGVFKVKDTTTLQQHLVDGRDMIIIRMPKDFPPFPQKLKFREPQREERICLVTTNFQTKSMSSMVSDTSCWFPSGDGIFWKHWIQTKDGQCGSPLVSTRDGFIVGIHSASNFTNTNNYFTSVPKNFMELLTNQEAQQWVSGWRLNADSVLWGGHKVFMVKPEEPFQPVKEATQL [T132W],area with substrate ENLYFQC,0.0574
same,area with substrate ENLYFQD,0.0437
same,area with substrate ENLYFQF,0.055
same,area with substrate ENLYFQH,0.0525
same,area with substrate ENLYFQI,0.0366
same,area with substrate ENLYFQK,0.0574
same,area with substrate ENLYFQL,0.0499
same,area with substrate ENLYFQN,0.0579
same,area with substrate ENLYFQP,0.046
same,area with substrate ENLYFQQ,0.0436
same,area with substrate ENLYFQR,0.0662
same,area with substrate ENLYFQS,0.0594
same,area with substrate ENLYFQT,0.0549
same,area with substrate ENLYFQV,0.037
same,area with substrate ENLYFQW,0.0536
